Data: PubChem BioAssay (NCI)
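96-well plates; 48 h exposure; 5 concentrations. Endpoints by linear interpolation between flanking doses. Not reached: highest tested concentration assigned. The concentration for 50% growth inhibition is given as GI50. The concentration for full growth arrest is given as TGI.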 Peptide text beside a SMILES is read from it.

Each compound was assayed on NCI-H322M lung (assay: DTP human tumour cell line panel, 48 h).

SMILES	GI50 [µM]	TGI [µM]
CCCCC(=O)N/N=C/c1c(O)ccc2ccccc12	0.568	> 22.8
COc1ccc2c(Cl)cc(NC(=O)Nc3c(C)cccc3C)nc2c1	48.7	> 100
CCC(C)C1NC(=O)C2CCCN2C(=O)CNC(=O)C(C)NC(=O)C(Cc2ccccc2)NC(=O)C(C(C)C)NC1=O (centres undefined) (cyclo(GPIVFA); configuration not given here)		> 100
CCOC(=N)CC(=O)Nc1cccc(Cl)c1		> 100
O=C(Cc1nc2ncccc2[nH]c1=O)c1c[nH]c2ccccc12		51.7
CC(C)(C)c1cc(OCc2nnc3sc(=S)[nH]n23)c(Cl)cc1OCc1nnc2sc(=S)[nH]n12		> 100
COCCN1CCN(Cc2ccc(-c3n[nH]c4c3C(=O)c3c(NC(=O)NN5CCOCC5)cccc3-4)cc2)CC1	0.0294	0.517
COc1cc(C2C3=C(COC3=O)Nc3c2ccc2c3CCCC2)cc2c1OCO2 (centres undefined)	0.099	> 100
CCOC(=O)/C=C/[C@H](O)[C@@H](O)/C=C/C(=O)OCC		> 100
C/C=C/[C@H]1O[C@@H]2C(=C[C@H]1O)C(=O)O[C@H]2C	77.6	> 100
N=C(N)c1ccc(-c2ccc(-c3cccs3)s2)s1	0.268	1.11
CN1C=Cc2nccc3cc4c(c1c23)OCO4		11.3
c1cncc(O[Si](Oc2cccnc2)(Oc2cccnc2)Oc2cccnc2)c1		> 100
CC1(C)OCC([C@H]2CC23SCCCS3)O1 (some centres undefined)		> 100
Clc1ccc(-c2ccc(-c3nnc(COc4ccc(OCc5nnc(-c6ccc(-c7ccc(Cl)cc7Cl)o6)o5)c(Cl)c4)o3)o2)c(Cl)c1		> 100
CNS(=O)(=O)NN(C)S(=O)(=O)c1ccc2ccccc2c1		> 100
CC(C)CC(Nc1c(O)ccc2ccccc12)C(=O)O (centres undefined)		83.2
COC(=O)/C=C1/SC(N2N=C(c3cccs3)CC2c2ccc(F)cc2)=NC1=O (centres undefined)	2.24	6.68
Oc1cccc(/C=N/Nc2nnc(N/N=C/c3cccc(O)c3)c3ccccc23)c1		69.1
NCCCCC(=O)c1cccnc1		> 100
Cn1c2ccccc2c2c3[nH][nH]c(=O)c3c3c4ccccc4[nH]c3c21	2.65	60.8
O=C1NC(=O)/C(=C/c2ccc(S(=O)(=O)N/N=C\C(O)C(O)C(O)C(O)CO)cc2)N1 (centres undefined)		> 100
Nc1c(-c2ccccc2[N+](=O)[O-])nc2ccccn12		> 100
CC1(S)CC2C(CC1Sc1ccccc1)C2(C)C (centres undefined)		> 100
Cc1ccc(C2=C(c3ccccc3)C(c3ccccc3)Oc3ccc(C)cc32)cc1 (centres undefined)	15.3	32

SMILES	GI50 [µM]	TGI [µM]
CN1CCN(Cc2ccc(NC(=O)c3cncc(C#Cc4cncc5nccnc45)c3)cc2C(F)(F)F)CC1	2.5	8.91
N#Cc1c(O)cc(=O)n2c1[nH]c1ccccc12		> 100
CC12CO[C@@](C)(CC(S(=O)(=O)c3ccccc3)C1)O2 (some centres undefined)		> 100
O=c1[nH]nc(Cn2c3ccc(Br)cc3c3nc4ccccc4nc32)n1C1CCCCC1		> 100
CC(C)(C)OC(=O)c1ccc(NCC2=CC(=O)C=CC2=O)cc1		85.4
Cc1ccc(N2CCN(CCC(=O)O)CC2)cc1		> 100
C=C1C(=O)OC2CC(=C)C3CC=C(C)C3CC12 (centres undefined)		> 100
CCOC(=O)c1c(-c2ccc(Br)cc2)ccn1C		> 10
COc1ccc2c(c1)CC1c3c(ccc(OC)c3O)CC2N1C (centres undefined)		> 100
COc1ccc(N=Nc2c(C)c(C#N)c(=S)n(C3OC(CO)C(O)C(O)C3O)c2C)cc1 (centres undefined)		> 100
CCN(CC)c1ccc2cc(-c3nnc(-c4ccccc4O)o3)c(=O)oc2c1		30.3
CC(=O)C(CN(C)C)C(c1ccccc1)c1c(O)c2ccccc2oc1=O (centres undefined)		> 100
Cc1ccc(C(SCC(N)C(=O)O)(c2ccccc2)c2ccccc2)cc1 (centres undefined)	0.0839	> 100
CCN(CC)CCCNc1nc(=O)[nH]c(C)c1C(=O)Nc1ccc2c(c1)c1ccccc1n2CC		> 100
CN1CCN(c2nc(NCCCNc3ccnc4cc(Cl)ccc34)c3ccccc3n2)CC1	3.49	13.3
COc1cc2c(cc1OC)NC(=O)NC(Cc1ccc3c(c1)OCO3)CC2 (centres undefined)		> 100
CC1=C(Cl)C=CP(=O)(OC(C)C)C1 (centres undefined)		> 100
COc1ccc(/C(Cl)=C(\c2ccc(OCCN(C)C)cc2)c2ccc(OC(=O)C(C)(C)C)cc2)cc1		28.1
COc1cccc2c1C(=O)c1c(O)c3c(c(O)c1C2=O)C[C@@](O)(C(=O)CO)CC3OC1CC(O)C(O)C(C)O1 (some centres undefined)		7.31
CC(C)CC(NC(=O)C(Cc1ccccc1)NC(=O)C(Cc1c[nH]c2ccccc12)NC(=O)CNC(=O)C(N)Cc1ccc(O)cc1)C(=O)O (centres undefined) (H-YGWFL-OH; configuration not given here)		> 100
C[C@]12CC[C@H]3[C@@H](C[C@@H]4SC(Nc5ccccc5)=N[C@@]45CC(O)CC[C@]35C)[C@@H]1CCC2O (some centres undefined)	2.88	11.1
CCCCCCOc1ccc(C(=O)N(C)O)cc1		> 100
Cc1ccc(C2=C(c3ccc(C)cc3)C3(c4ccc(C)cc4)C4C(=O)c5ccccc5C(=O)C4C2(c2ccc(C)cc2)S3=O)cc1 (centres undefined)	> 100	> 100
C/C(=N\NC(=S)N1CCCCCCCCCCCC1)c1ccccn1		1.73
Oc1ccc(CCNCc2cc3c(cc2Br)OCO3)cc1		> 100
